# Results reported in PubChem BioAssay AID686979 (National Center for Advancing Translational Sciences (NCATS), 2013).
# The whole screen tested about 420,000 compounds, of which about 50,000 (12%) were called active. The inconclusive results got no clear call from the source; some entries with a clear call stand among them for comparison. The call rests on the fitted dose curve; in most records, active means well fitted inhibition curve with a large enough effect; inconclusive means small, poorly fitted or top-dose-only effect; inactive means flat fitted curve, though single readings scatter. No potency is given beside an inconclusive call; the fits are too rough.
# Test: qHTS for Inhibitors of human tyrosyl-DNA phosphodiesterase 1 (TDP1): qHTS in cells in presence of CPT; further: nearly all actives have a fitted effect of over 55% in size
# Settings: chicken DT40 Tdp1-/-;hTDP1 cells + 20 nM CPT, ATP luminescence, 48 h; activity change, negative = growth inhibition: at 46.2 µM (top of the series) unless noted
# In short: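 Cell growth measured by CellTiter-Glo luminescence after a minimum 48 h, 37 C compound exposure with 20 nM CPT in Tdp1-knockout DT40 cells stably expressing hTDP1, seeded 400/well; qHTS titration format.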
# On the % scale 0 is the no-effect control and ±100 the full control effect; potency means the concentration at half of the fitted maximal effect; tags describe the fitted curve by direction and shape.
Structure (SMILES),Potency,"activity change, negative = growth inhibition"
CN(CC(=O)Nc1sc2c(c1C#N)CCCCC2)Cc1nc2ccccc2c(=O)[nH]1,"inconclusive [inhibitor, single point]",–
Cc1coc2cc3oc(=O)c(CCC(=O)NCc4ccc(Cl)cc4)c(C)c3cc12,active: 10.3 µM,–
CCOc1ccccc1CN1CCC(N2CCC(C(=O)NC3CC3)CC2)CC1,–,inconclusive: -5.71% [inhibitor]
Cc1ccc(S(=O)(=O)N2CCN(C(=O)CSc3ncc(C(F)(F)F)cc3Cl)CC2)cc1,"inconclusive [inhibitor, single point]",–
NC(=O)c1ccccc1OCc1nc2ccccc2s1,"inconclusive [inhibitor, single point]",–
CCC(c1nnnn1C(C)(C)C)N(Cc1ccco1)Cc1cc2cccc(C)c2[nH]c1=O (stereo unspecified),"inconclusive [inhibitor, single point]",–
CC(=O)Nc1nc(C2CC2)cc(-c2ccccc2)c1C#N,–,inactive: 2.67%
O=C(Cc1ccc(Cl)c(Cl)c1)Nc1ccc(SC(F)F)cc1,"inconclusive [inhibitor, single point]",–
O=C(CCN1CCOCC1)c1ccc(Br)cc1,active: 3.26 µM,–
Cc1ccc(C2=N/C(=C\N3CCCCC3)C(=O)O2)cc1,–,inactive: -17.8%
CCOc1ccc(OC(=O)c2cn(-c3ccc(C)cc3)c(=O)c3ccccc23)cc1,"inconclusive [inhibitor, single point]",–
CN(C(=O)c1cc(S(=O)(=O)N2CCCCC2)c[nH]1)C1CCCCC1,"inconclusive [inhibitor, single point]",–
COC(=O)c1c(C)[nH]c(C(=O)/C=C/c2ccccc2F)c1C,–,inactive: -21%
Cc1cc(C)c(NC(=O)C2CCCN2CCC(C)C)c(C)c1 (stereo unspecified),"inconclusive [inhibitor, single point]",–
O=C(Nc1cccnc1)c1cc(-c2cccnc2)nc2ccc(Br)cc12,"inconclusive [inhibitor, single point]",–
O=C(O)c1ccccc1C(=O)Nc1ccccc1NC(=O)c1ccccc1C(=O)O,–,inactive: 16.9%
Cc1cc(O)c(-c2cc(C(=O)NCCc3ccc(S(N)(=O)=O)cc3)[nH]n2)cc1C,–,inactive: -2.51%
O=C(Nc1cccnc1Cl)c1cnn2c1NC(=C1CC1)C=C2C(F)F,"inconclusive [inhibitor, full curve]",–
CCCCC(=O)Nc1ccccc1C(=O)OCc1cc(=O)n2nc(C3CCCCC3)sc2n1,"inconclusive [inhibitor, single point]",–
COc1ccc(CCNC(=O)CCCOc2cc(=O)n(C)c3ccccc23)cc1OC,–,inactive: -5.44%
CCC(=O)Oc1ccc2c(=O)c(-c3ccc4ccccc4n3)c(CC)oc2c1C,"inconclusive [inhibitor, single point]",–
O=C(O)c1c(NC(=O)N(CCO)Cc2ccccc2)sc2c1CCCC2,–,inactive: -7.32%
COc1ccc(-c2cc(C(F)(F)F)n3nc(C(=O)Nc4cc(Cl)cc(Cl)c4)cc3n2)cc1,–,inactive: -12.4%
CN(CC(=O)Nc1ccc(Cl)c(C(F)(F)F)c1)C(=O)c1cc(=O)c2ccccc2o1,"inconclusive [inhibitor, single point]",–

Structure (SMILES),Potency,"activity change, negative = growth inhibition"
CSCCC(NC(=O)c1cccc(C)c1)C(=O)OCN1C(=O)c2ccccc2C1=O (stereo unspecified),–,inactive: -0.743%
COc1cc(-c2ccno2)ccc1S(=O)(=O)N1CCN(c2ccc(C(C)=O)cc2)CC1,"inconclusive [inhibitor, single point]",–
O=C(CCC(=O)NNC(=O)Nc1ccc(Cl)cc1)NCc1ccccc1,–,inactive: -19.3%
COC(=O)C1=C(C)NC(C)=C(C(=O)OC)C1c1ccc(OC(=O)c2ccco2)cc1,–,inactive: 19.9%
COc1cccc(CN(C)C(=O)C23CC4CC(CC(NC(C)=O)(C4)C2)C3)c1OC,"inconclusive [inhibitor, single point]",–
Cc1nn(S(=O)(=O)c2ccc(Br)cc2)c(C)c1S(=O)(=O)N1CCOCC1,–,inactive: -1.69%
COc1ccc(N2CCN(C(=O)c3ccc(-n4nc(C)cc4C)cc3)CC2)cc1,"inconclusive [inhibitor, single point]",–
O=C1NC(=S)SC1=Cc1ccc(Cl)cc1,"inconclusive [inhibitor, single point]",–
Cc1cc2nc(C3CCCCC3)c(Cc3ccccc3C(F)(F)F)n2c(C)c1Br,"inconclusive [inhibitor, single point]",–
CCOC(=O)C1CCN(C(=O)Cn2nc(C)n3c(cc4cc(F)ccc43)c2=O)CC1,"inconclusive [inhibitor, single point]",–
Cc1nc2ccc(NC(=O)c3cncc(Br)c3)cc2s1,"inconclusive [inhibitor, single point]",–
COc1cccc(-n2c(=O)n(Cc3ccccc3)c(=O)c3[nH]cnc32)c1C,–,inactive: -3.1%
COc1cc(C(=S)N2CCOCC2)cc(OC)c1OS(=O)(=O)c1ccc(C)cc1,–,inactive: -9.44%
Cc1ccc(SCC(=O)Nc2nncs2)cc1,–,inactive: -23.3%
O=C(NCc1ccco1)c1cc2c(s1)CCCCC2,"inconclusive [inhibitor, single point]",–
O=C(NCc1ccccc1)C(=O)NCC1OCCN1S(=O)(=O)c1ccc(Br)cc1 (stereo unspecified),"inconclusive [inhibitor, single point]",–
CCc1ccc(C(=O)Nc2ccc(OC)c(S(=O)(=O)N3CCCCC3)c2)cc1,"inconclusive [inhibitor, single point]",–
Cn1c(=O)c(-c2cccs2)nc2cnc(OCc3ccccc3)nc21,–,inactive: 9.07%
CCOc1cc2[nH]c(=O)n(CCCCC(=O)N3CCCCCC3)c(=O)c2cc1OCC,"inconclusive [inhibitor, single point]",–
CC1CCCN(c2ccc(/C=C(\C#N)c3nn(-c4ccccc4)c(N)c3C#N)cc2[N+](=O)[O-])C1 (stereo unspecified),"inconclusive [inhibitor, single point]",–
Cc1ccc(C)c(S(=O)(=O)N2CCN(C(=O)Cc3ccccc3)CC2)c1,–,inactive: -9.96%
CC(C)c1ccc(Nc2nc(Nc3ccc(Cl)cc3)nc(N3CCOCC3)n2)cc1,"inconclusive [inhibitor, single point]",–
CSc1ncc(CN2CCc3c([nH]c4ccccc34)C2C(C)(C)C)cn1 (stereo unspecified),"inconclusive [inhibitor, single point]",–
COc1ccc(N2CCN(C(=O)c3ccc(N(C)S(=O)(=O)c4ccc(OC)cc4)cc3)CC2)cc1,"inconclusive [inhibitor, single point]",–

Structure (SMILES),Potency,"activity change, negative = growth inhibition"
FC(F)(F)c1ccccc1NC(=S)N1CCN(c2ccccn2)CC1,–,inactive: -19%
CC(C)c1ccc(CCNC(=O)CSC(=S)N2CCCC2)cc1,–,inactive: -1.96%
CCOc1ccc(C2CC(c3cccc(OC)c3OC)n3nnnc3N2)cc1Cl (stereo unspecified),"inconclusive [inhibitor, single point]",–
Cc1cc2nc3c(c(C(F)(F)F)n2n1)CCCC3,–,inactive: 1.04%
OCCCn1c(C2CCCN2c2nc(-c3ccc(F)cc3)cs2)nc2cc(Cl)c(Cl)cc21 (stereo unspecified),"inconclusive [inhibitor, single point]",–
c1ccc(CN2CCN(Cc3c[nH]c4ccccc34)CC2)cc1,active: 2.06 µM,–
COc1cc(Cl)c(CC(=O)NO)cc1OC,–,inactive: -15.9%
CC1Cc2cc(S(=O)(=O)N3CCC(C(=O)Nc4ccccn4)CC3)ccc2N1C(=O)C1CCC1 (stereo unspecified),active: 18.4 µM,–
CC(=O)C1=CCC(c2ccc(C)cc2)N(S(=O)(=O)c2ccc(C)cc2)C1 (stereo unspecified),"inconclusive [inhibitor, single point]",–
Cc1[nH]n(C(N)=S)c(=O)c1N=Nc1ccccc1C(F)(F)F,"inconclusive [inhibitor, partial curve, poor fit]",–
CC(C(=O)NCc1cccs1)N1C(=O)c2ccccc2C1=O (stereo unspecified),–,inactive: -1.18%
O=C(NCCc1ccc(F)cc1)c1cccc(NC(=O)c2ccccc2)c1,"inconclusive [inhibitor, single point]",–
CCOC(=O)c1c(-c2ccc(F)cc2)csc1NC(=O)c1c(-c2ccccc2)noc1C,"inconclusive [inhibitor, single point]",–
O=C(CSCc1ccc(F)cc1)N1CCN(c2ccc(F)cc2)CC1,"inconclusive [inhibitor, single point]",–
O=C(C1=C[C@H](c2coc3ccccc3c2=O)C[C@H](OCCCCO)O1)N1CCN(Cc2ccccc2)CC1,"inconclusive [inhibitor, single point]",–
COc1cc(Cl)c(C)cc1NC(=O)c1sc2nc3n(c(=O)c2c1C)CCCCC3,–,inactive: 7.85%
Cc1cc(-c2n[nH]c(=S)n2/N=C/c2sccc2C)n[nH]1,–,inactive: -1.2%
Cn1c(=O)c2cc(NC(=S)NC3CCCCC3)ccc2n1Cc1cccc(C(F)(F)F)c1,"inconclusive [inhibitor, single point]",–
COc1ccc(OC)c(NC(=O)CSC2=Nc3ccccc3C3=NC(CC(=O)NCc4ccc5c(c4)OCO5)C(=O)N23)c1 (stereo unspecified),"inconclusive [inhibitor, single point]",–
Cc1nc2c3ccccc3nc(NNC(=O)CCC(=O)NCCC(C)C)n2n1,–,inactive: 5.77%
CCCCCCCCCCCCN1C(=O)CSC1c1cccnc1 (stereo unspecified),"inconclusive [inhibitor, single point]",–
Cc1cccc(C2CC(c3ccc(Cl)cc3)Nc3nc(N)nn32)c1 (stereo unspecified),"inconclusive [inhibitor, partial curve, poor fit]",–
Nc1ncc(-c2nnnn2-c2ccc(Cl)cc2)c(-c2ccc(Cl)cc2)n1,active: 4.61 µM,–
